Experimental data as given in the supplement of paper PMC3334620.
The full ranking holds about 33,000 sequences; the median of “E-score (-0.5 to 0.5)” is about -0.032, and the highest 2% start at about 0.36. The list shows a part of the results.

The sequences below were run against T1, Sko1 (UniProt Q02100) (assay: PBM E-score (8-mer binding enrichment) (E-score (-0.5 to 0.5)); higher = stronger / more preferred TF binding; most listed sequences are background and not binding sites). Conditions: protein concentration: 200 nM; construct: GST-full length.
T1 sequence: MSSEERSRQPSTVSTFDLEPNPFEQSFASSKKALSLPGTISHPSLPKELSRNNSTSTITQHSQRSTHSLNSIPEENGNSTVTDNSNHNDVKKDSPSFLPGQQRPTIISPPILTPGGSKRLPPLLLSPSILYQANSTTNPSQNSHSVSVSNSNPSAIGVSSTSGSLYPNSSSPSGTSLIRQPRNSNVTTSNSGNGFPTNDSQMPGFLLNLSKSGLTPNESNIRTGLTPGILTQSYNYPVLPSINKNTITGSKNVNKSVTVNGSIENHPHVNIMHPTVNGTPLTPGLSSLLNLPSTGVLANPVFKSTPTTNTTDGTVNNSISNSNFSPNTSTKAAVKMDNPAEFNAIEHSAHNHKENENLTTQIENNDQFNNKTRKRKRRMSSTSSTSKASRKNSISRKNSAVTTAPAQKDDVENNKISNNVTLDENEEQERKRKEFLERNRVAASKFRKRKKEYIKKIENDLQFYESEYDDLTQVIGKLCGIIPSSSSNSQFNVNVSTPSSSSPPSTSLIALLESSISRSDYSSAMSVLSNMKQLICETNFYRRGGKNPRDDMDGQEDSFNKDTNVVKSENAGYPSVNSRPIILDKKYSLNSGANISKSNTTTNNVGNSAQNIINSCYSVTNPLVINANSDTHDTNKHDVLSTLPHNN
In short: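 Yeast transcription factors carrying a GST tag, as full-length proteins or DNA-binding domains, were produced by PURExpress in vitro transcription/translation. About 100-200 nM protein was applied to universal all-10-mer Agilent arrays, double-stranded by primer extension on fresh or once-stripped slides. Bound protein was detected with fluorescent anti-GST, and scans were normalised with masliner. The Universal PBM Analysis Suite gave each ungapped eight-base word, pooled with its reverse complement, an E-score, a modified Wilcoxon-Mann-Whitney statistic.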

Row | Sequence | PBM E-score
1 | ATCTGGCG | 0.0902
2 | ACTCGTAA | 0.345
3 | CCTGTTAG | -0.0167
4 | CCAACAGC | -0.233
5 | GAGGCGGA | -0.297
6 | AAGTACCC | -0.253
7 | CATATATC | 0.121
8 | GCCCACGA | -0.00692
9 | AATACCCG | -0.117
10 | CTGGCAAA | 0.00481
11 | ATCTTCGA | 0.00578
12 | GTGCGATA | 0.0494
13 | ACTCCAAT | -0.165
14 | GCGTGAAA | 0.125
15 | CTGAACTC | -0.296
16 | TCCTCCAA | -0.109
17 | GAGTGTGC | -0.109
18 | ATGACTGC | -0.0291
19 | ACTATGTA | 0.222
20 | ATGACTTG | -0.137
21 | CCCCAAGC | -0.0961
22 | CGGCCGAG | -0.237
23 | TCAATAGA | 0.157
24 | ACAACGCC | 0.0338
25 | GAGAATGC | -0.0809

Row | Sequence | PBM E-score
26 | CCTAGGGA | -0.115
27 | CACAATTC | 0.104
28 | GAGCGCCC | -0.287
29 | TACATAAA | 0.308
30 | AGCGAGTC | -0.198
31 | AGTGCAAG | 0.013
32 | ATGGCCTC | -0.185
33 | AACCGAGC | -0.133
34 | GTACGGTA | 0.207
35 | GGCAGGAA | -0.244
36 | ATCCGAAA | -0.0446
37 | ACCAAGAC | 0.074
38 | GTAGGGAC | -0.0404
39 | ACTGGTGC | -0.119
40 | GAGGCGGC | -0.215
41 | TAGCCTAA | 0.0119
42 | CATATGAG | -0.0409
43 | AGCTATAT | 0.172
44 | CGCTGAAA | -0.161
45 | CCCTTCCC | -0.168
46 | GCCTCCTA | -0.3
47 | TCAATTCA | 0.00979
48 | GGGCGAGA | -0.163
49 | CTCTTCGA | -0.115
50 | CCGCGAGG | -0.233

Row | Sequence | PBM E-score
51 | AGTCTCCC | -0.274
52 | AGCGGACG | -0.13
53 | AAAAAACC | -0.0245
54 | TGGGACCA | -0.078
55 | AGAGCCAA | -0.0594
56 | GCTGGACA | -0.12
57 | CTCCATAA | -0.0183
58 | CTAAGACC | -0.0578
59 | AAGTGCCG | -0.126
60 | GCGTGCAA | -0.11
61 | CAGGAAGC | 0.00845
62 | AGATGTCC | -0.0513
63 | AAAACCGG | -0.128
64 | AGTGCCAC | -0.223
65 | AAGCTGGG | -0.202
66 | GAGTAAAA | 0.119
67 | ACTAAATG | 0.0819
68 | AAAAGTAC | 0.169
69 | GGTTAGTA | -0.0678
70 | ACTAGTTC | 0.0084
71 | ACCCCTTG | -0.323
72 | ATGTTACA | 0.0856
73 | CCAGATTA | 0.129
74 | ATATACAG | 0.0597
75 | CAGCTTGC | 0.0991

Row | Sequence | PBM E-score
76 | GCGAACGC | -0.0847
77 | TAAGTTCA | 0.0318
78 | CACTGTTC | -0.0457
79 | CTAGCAGC | -0.0931
80 | GCATCGTA | 0.0886
81 | AGTTCGGG | 0.049
82 | GCAGTCTA | -0.207
83 | GCAGCTAA | 0.0158
84 | GAAATTAC | 0.323
85 | CGCAGTAA | 0.129
86 | ATCTGCAG | 0.0224
87 | CGCGACCG | -0.0458
88 | GAGAGCGC | -0.22
89 | TCGACTCA | -0.0476
90 | CAAGCCGG | 0.015
91 | ACGCCTAT | -0.0299
92 | AAGCTTTC | 0.0125
93 | ATTTCCTA | 0.0111
94 | TCAGCAAA | 0.206
95 | ATCCGTCA | 0.177
96 | AAGTTTCT | 0.168
97 | ACGGGCGG | -0.434
98 | AGCATCGG | -0.181
99 | GGTTTCCA | -0.185
100 | CGTTAGCA | 0.107

Row | Sequence | PBM E-score
101 | GACGAAAA | 0.354
102 | AGCCGGCT | -0.0401
103 | AGGATCTG | -0.212
104 | CTTAGCCC | -0.19
105 | AGTTAGTA | 0.123
106 | ACTGCTAC | 0.108
107 | GTTGTTAA | 0.212
108 | GCTATAAA | 0.0591
109 | CTTAGCAC | 0.0362
110 | CCTGAATC | 0.0305
111 | TATGGAGA | -0.057
112 | ACGTACCG | 0.372
113 | CGTTCGTA | 0.306
114 | GAATGATC | -0.0198
115 | AGGTACCT | -0.19
116 | CGTAAGAG | 0.376
117 | GCTAAGAA | -0.0558
118 | ACCATACA | -0.0789
119 | AACCTACG | 0.253
120 | CAATATGG | -0.0926
121 | CTCGACAA | 0.0579
122 | GTTTTGGA | -0.00988
123 | ACCCGTGG | -0.34
124 | ATCGATAA | 0.145
125 | ATCCTTAC | 0.174

Row | Sequence | PBM E-score
126 | ATAGATGA | 0.108
127 | CAGAGCCA | -0.101
128 | CGGGCAAA | -0.115
129 | AGGCTTTA | 0.0221
130 | ACACGGAA | 0.0164
131 | GTGAGCCA | -0.0673
132 | ATAAATAA | 0.31
133 | CAATGGAA | 0.0512
134 | ATAAGTAA | 0.179
135 | CCTCTTCA | -0.255
136 | CCGTGAAA | 0.0717
137 | CTTTACTA | 0.088
138 | CGGGATCC | -0.0633
139 | ACGGTTTG | -0.104
140 | AACTTGCA | 0.0361
141 | GCCCCTGA | -0.18
142 | AGCGTGGG | -0.301
143 | AATTAGCC | -0.00886
144 | AGATTATG | 0.145
145 | ACATCATA | 0.425
146 | CCATCCCC | -0.148
147 | CACATGCG | 0.15
148 | CTCTTAGA | -0.157
149 | TCGTCACA | 0.379
150 | AGAAAAAC | 0.0791

Row | Sequence | PBM E-score
151 | ATTACGAG | 0.36
152 | CCGGTCCC | -0.461
153 | GTAACGAC | 0.0668
154 | TACCAAAA | 0.0737
155 | CATTCTTC | 0.0192
156 | AGATACGA | 0.208
157 | ATGGGCTG | -0.174
158 | CACTAGCA | -0.158
159 | TCGGCCAA | -0.108
160 | CGAATGGC | -0.0402
161 | CAGGGACG | -0.0243
162 | AGTGGCGG | -0.126
163 | CGAACCGA | 0.0415
164 | TAGCTCCA | -0.0202
165 | TCGTGCCA | -0.0756
166 | CAGCCCAA | -0.0808
167 | CCCACTGC | -0.115
168 | GGCCACGA | -0.274
169 | CCACTTTC | 0.0359
170 | AATCACCA | 0.118
171 | ACAGGCCC | -0.371
172 | AACTAAAT | -0.0609
